Where “and” joins values, the source holds several entries; their conditions need not be identical. Equal values may be shown once. Hit rate of the full screen: of about 48,000 compounds, about 120 (0.25%) were called active. Inconclusive results (about 4%) are left out. The call rests on the fitted dose curve; in most records, active means well fitted activation curve with a large enough effect; inconclusive means small, poorly fitted or top-dose-only effect, or another doubt; inactive means no such curve, though single readings can be large or run the other way. Some of the results follow.
Assay: Primary qHTS for Identification of Small Molecule Activators of Huntingtin-Antisense Promoter Activity; further: nearly all actives have a fitted effect of over 55% in size
Settings: HEK293 HTT-AS promoter firefly luciferase reporter, 24 h; at 57.5 µM (top of the series) unless noted
How it was run: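 HEK293 luciferase promoter-reporter cells (2,500/well) plated 24 h, then compounds added at up to 57.5 uM final for 24 h at 37 °C. Firefly luminescence by Dual-Glo, normalized to vehicle (0%) and zero RLU (-100%).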

Q: With `CSc1ccc(CN2CCN(C(=O)COc3ccc(C)cc3)CC2)cc1` as the compound, how does the activity change, positive = activation read?
A: inactive: -64.6%

Q: With `COc1ccc(OC)c(NC(=O)Cn2cc(C(=O)c3ccccc3)c3ccccc32)c1` as the compound, how does the activity change, positive = activation read?
A: inactive: -36.2%

Q: With `O=C(Nc1ccc(Cl)cc1C(=O)c1ccccc1)c1cc(Cl)cc(Cl)c1` as the compound, how does the activity change, positive = activation read?
A: inactive: -2.42% [at 57.5 µM, percent change from vehicle, -100% = no light]

Q: Which activity change, positive = activation does the source give for `NC1CC1c1ccccc1` (stereo not drawn) here?
A: inactive: -7.36%

Q: For `C=C(C)[C@H]1CN[C@H](C(=O)O)[C@H]1CC(=O)O`, which activity change, positive = activation is on record?
A: inactive: -4.25%

Q: For `C#CC1(O)CCC2C3CCC4=CC(=O)CCC4(C)C3CCC21C` (stereo not drawn), which activity change, positive = activation is on record?
A: inactive: -15.6%

Q: For `COc1ccc(-c2nc(CN3C(=O)CN=C(c4ccccc4)c4cc(Cl)ccc43)c(C)o2)cc1`, which activity change, positive = activation is on record?
A: inactive: -19.6%

Q: For `CCOc1ccc2nc(NC(=O)c3cccn(Cc4ccc(Cl)cc4)c3=O)sc2c1`, which activity change, positive = activation is on record?
A: inactive: -22.1% [at 57.5 µM, percent change from vehicle, -100% = no light]

Q: With `Cc1cc(O)ccc1Cl` as the compound, how does the activity change, positive = activation read?
A: inactive: 4.54%

Q: For `O=C1OC(CCN2CCCCC2)OC1(c1ccccc1)c1ccccc1` (stereo not drawn), which activity change, positive = activation is on record?
A: inactive: -8.91%

Q: Which activity change, positive = activation does the source give for `CCc1ccccc1NC(=O)c1cccn(Cc2ccccc2F)c1=O` here?
A: inactive: -16.9% [at 57.5 µM, percent change from vehicle, -100% = no light]

Q: With `CCCC(C)C1(CC)C(=O)N=C(S)NC1=O` (stereo not drawn) as the compound, how does the activity change, positive = activation read?
A: inactive: -9.32%

Q: Which activity change, positive = activation does the source give for `O=C(Nc1ccncc1)C(=O)c1cn(Cc2ccc(Cl)cc2)c2ccccc12` here?
A: inactive: -17.6%

Q: With `Nc1ccccc1C(=O)O` as the compound, how does the activity change, positive = activation read?
A: inactive: -4.15%

Q: For `COc1ccccc1NC(=O)N(Cc1ccc2c(c1)OCO2)C1CCN(Cc2ccccc2)CC1`, which activity change, positive = activation is on record?
A: inactive: -17.7%

Q: For `Cc1c(Cl)cccc1NC(=O)CN1C(=O)C(C)N=C(c2ccccc2)c2ccccc21` (stereo not drawn), which activity change, positive = activation is on record?
A: inactive: -21.1% [at 57.5 µM, percent change from vehicle, -100% = no light]

Q: With `CC(C(=O)c1ccccc1)N(C)C` (stereo not drawn) as the compound, how does the activity change, positive = activation read?
A: inactive: -8.46%

Q: With `CCOC(=O)c1c(C(C#N)=CN)c2ccc(Cl)c(Cl)c2n1C` as the compound, how does the activity change, positive = activation read?
A: inactive: -17.2%

Q: With `COc1cc(C(c2c(O)c3ccccc3oc2=O)c2c(C)n(C)n(-c3ccccc3)c2=O)ccc1OCC(=O)O` (stereo not drawn) as the compound, how does the activity change, positive = activation read?
A: inactive: -2.35% [at 57.5 µM, percent change from vehicle, -100% = no light]

Q: For `CN1CCc2cc(Cl)c(O)cc2[C@H]2c3ccccc3CC[C@@H]21`, which activity change, positive = activation is on record?
A: inactive: -11%

Q: With `O=C(Nc1ccc(Cl)cc1C(=O)c1ccccc1)c1ccccc1Br` as the compound, how does the activity change, positive = activation read?
A: inactive: -14.3%

Q: For `Nc1c(C(=O)Nc2ccc(Br)cc2F)sc2nc3c(cc12)N1CCC3CC1`, which activity change, positive = activation is on record?
A: inactive: -18.8%

Q: For `Cc1cccc(-n2c(/C=C/c3c(C)[nH]c4ccccc34)nc3ccccc3c2=O)c1`, which activity change, positive = activation is on record?
A: inactive: -14.7% [at 57.5 µM, percent change from vehicle, -100% = no light]

Q: Which activity change, positive = activation does the source give for `CCN(CC)CCOC(=O)C(C)(c1ccccc1)c1ccccc1` here?
A: inactive: -2.83%

Q: With `CN(C)CCN(C)CCc1ccc(Cl)c(Cl)c1` as the compound, how does the activity change, positive = activation read?
A: inactive: -3.8%

Q: For `Nc1nc(N)nc(NC2CC2)n1`, which activity change, positive = activation is on record?
A: inactive: -21.7%

Q: With `Nc1c(C(=O)Nc2ccc(Cl)cc2)sc2nc3c(cc12)N1CCC3CC1` as the compound, how does the activity change, positive = activation read?
A: inactive: -13%

Q: With `Cn1cc(/C=C/c2nc3ccccc3c(=O)n2-c2ccccc2)c2ccccc21` as the compound, how does the activity change, positive = activation read?
A: inactive: 5.79%

Q: For `O=C(Nc1ccc2c(c1)OCO2)c1cccn(Cc2cccc(F)c2)c1=O`, which activity change, positive = activation is on record?
A: inactive: -15.5% [at 57.5 µM, percent change from vehicle, -100% = no light]

Q: With `C[C@]12CCC(=O)C=C1CC[C@@H]1[C@H]3CC[C@](C)(O)[C@@]3(C)CC[C@@H]12` as the compound, how does the activity change, positive = activation read?
A: inactive: -33% [at 116 µM]

Q: For `C[C@H](N)[C@H](O)c1ccc(O)c(O)c1`, which activity change, positive = activation is on record?
A: inactive: -5.38%

Q: Which activity change, positive = activation does the source give for `COc1cc(C(c2c(O)c3ccccc3oc2=O)c2c(C)n(C)n(-c3ccccc3)c2=O)ccc1O` (stereo not drawn) here?
A: inactive: -18.2% [at 57.5 µM, percent change from vehicle, -100% = no light]

Q: Which activity change, positive = activation does the source give for `CC(C)N(CCC(C(N)=O)(c1ccccc1)c1ccccn1)C(C)C` (stereo not drawn) here?
A: inactive: -7.47%

Q: For `CN1CCN(c2oc(-c3ccc(COc4ccccc4)o3)nc2C#N)CC1`, which activity change, positive = activation is on record?
A: inactive: -9.65% [at 57.5 µM, percent change from vehicle, -100% = no light]

Q: Which activity change, positive = activation does the source give for `CC(C)=CCOc1c2occc2cc2ccc(=O)oc12` here?
A: inactive: -9.33%

Q: Which activity change, positive = activation does the source give for `N[C@@H](Cc1ccc(N(CCCl)CCCl)cc1)C(=O)O` here?
A: inactive: -24.8% and inactive: -17.9%

Q: With `Cc1nnc(NC(=O)c2cccn(Cc3cccc(Cl)c3)c2=O)s1` as the compound, how does the activity change, positive = activation read?
A: inactive: 1.36% [at 57.5 µM, percent change from vehicle, -100% = no light]

Q: With `O=c1c2ccccc2nc(/C=C/c2ccccc2)n1-c1ccccc1F` as the compound, how does the activity change, positive = activation read?
A: inactive: -20.9% [at 57.5 µM, percent change from vehicle, -100% = no light]

From PubChem BioAssay AID1508624 (National Center for Advancing Translational Sciences (NCATS), 2021)
